# From PubChem BioAssay AID1508623 (National Center for Advancing Translational Sciences (NCATS), 2021)
# In all, about 48,000 compounds went through this assay and about 450 (0.94%) were called active. Not shown: some 19% with an inconclusive outcome. Calls follow the shape of the dose curve; as a rule, active = well fitted inhibition curve with a large enough effect; inconclusive = small, poorly fitted or top-dose-only effect; inactive = no such curve, though single readings can be large or run the other way. This is one part of the list.
# Assay: Primary qHTS for Identification of Small Molecule Inhibitors of Huntingtin Promoter Activity; also: nearly all actives have a fitted effect of over 50% in size
# Settings: HEK293 HTT promoter firefly luciferase reporter (activity 0% = vehicle and -100% = no light), 24 h; series mostly up to 57.5 µM; activity change, negative = inhibition: at the top concentration
# Method in brief: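 HEK293 Fluc reporter, 2,500 cells/well, 24 h pre-culture; cpds up to 57.5 uM final, 24 h 37 degrees C; Dual-Glo, 10 min RT; normalized vehicle = 0%, zero RLU = -100%.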
row,Structure (SMILES),"activity change, negative = inhibition"
1,CCc1ccc(-c2cn3c(n2)sc2cc(C(=O)NCCC4=CCCCC4)ccc23)cc1,inactive: 2.99%
2,COC(=O)c1ccc2c(c1)N(CC(=O)Nc1ccc(OC)c(Cl)c1)C(=O)c1ccccc1S2,inactive: -33.8%
3,Cc1ccc(-n2nc3c(N4CCCC(C(=O)NCc5ccc(Cl)cc5)C4)nnc(C)c3c2C)cc1 (configuration not stated),inactive: -1.48%
4,Cc1ccc(NC(=O)Cn2c(=O)n(Cc3nc(C)no3)c(=O)c3cc4c(cc32)OCO4)c(C)c1,inactive: -14.8%
5,N#Cc1nc(COc2cccc(Cl)c2)oc1NCCc1ccccc1,inactive: 1.53%
6,CCOc1ccccc1C(=O)N(Cc1cc(OC)c(OC)c(OC)c1)c1ccccn1,inactive: -8.14%
7,COC(=O)CNC(=O)C1CCN(S(=O)(=O)c2cccc3nsnc23)CC1,inactive: -5.24%
8,Cc1ccc(C(=O)c2c(N)c(C(=O)Nc3ccccc3Cl)c3ccccn23)cc1,inactive: -0.145%
9,Cc1ccc(CCNC(=O)c2ccc3c(c2)nc2n3CCCCC2)cc1,inactive: -12.9%
10,Cc1sc2ncn(CC(=O)Nc3cccc(C(F)(F)F)c3)c(=O)c2c1S(=O)(=O)N1CCN(C)CC1,inactive: -10.4%
11,COc1cc2c(Nc3ccc(Br)cc3F)ncnc2cc1OCC1CCN(C)CC1,inactive
12,CC1=C(C(=O)Nc2ccc(C)cc2C)C(c2ccc([N+](=O)[O-])cc2)n2ncc(C(=O)Nc3ccc(F)cc3)c2N1 (configuration not stated),inactive: 0.505%
13,Cc1ccc(-n2c(=O)c3c(cnn3C)n(CC(=O)Nc3ccc(C)cc3C)c2=O)cc1,inactive: -6.36%
14,Cc1ccccc1Cc1c(C)nc2nc(SCC(=O)N(C)c3ccccc3)nn2c1C,inactive: -18.8%
15,Cc1c(C(=O)N2CCC(C)CC2)c(S(=O)(=O)NCc2ccc(Cl)cc2)c(C)n1C,inactive: -23%
16,CCN(CC)c1ccc2cc(-c3nc(-c4cccs4)no3)c(=O)oc2c1,inactive: 54.8%
17,CC1CCN(S(=O)(=O)c2ccc3c(c2)c(=O)c(C(=O)NCCc2ccccc2)cn3C)CC1,inactive: -3.86% [at 11.5 µM]
18,COc1ccccc1CNC(=O)c1c(O)nc2c(C)cccn2c1=O,inactive: 6.04%
19,CN(C)CCNC(=O)c1ccc2c(c1)NC(=O)C(CS(=O)(=O)Cc1cccc(Br)c1)N2 (configuration not stated),inactive: -7.02%
20,COc1ccccc1CNC(=O)CN(C)c1nn2c(=O)cc(C)nc2s1,inactive: -8.96%
21,CCc1ccc(NC(=O)C2CCCN2S(=O)(=O)c2ccc3c(c2)n(C)c(=O)c(=O)n3C)cc1 (configuration not stated),inactive: 12.4%
22,CC(=O)c1ccc(NC(=O)CSc2nnc3ccc(-c4ccc(Br)cc4)nn23)cc1,inactive: -19.8%
23,COc1ccccc1NC(=O)CCC(=O)N1CC(C)Oc2ccc(C)cc21 (configuration not stated),inactive: -25.6%
24,COc1ccc(C(=O)Nc2nc3nc(C)c(Cl)c(=O)n3[nH]2)cc1,inactive: 0.747%

row,Structure (SMILES),"activity change, negative = inhibition"
1,Cc1ccc2nc(Cl)c3cc(C(=O)NC4CCCCC4)sc3c2c1,inactive: -1.88%
2,COc1ccc(OC)c(NC(=O)C(NS(=O)(=O)c2ccc3c(c2)CCCC(=O)N3)C(C)C)c1 (configuration not stated),inactive: -11.1%
3,CN1CCc2nc3sc(C(=O)Nc4c(F)cccc4F)c(N)c3cc2C1,inactive: 64.8%
4,NS(=O)(=O)c1ccc(Cl)c(S(N)(=O)=O)c1,inactive: -2.99%
5,Cc1ccc(-c2cnc(NCc3c(F)cccc3Cl)n2C)cc1,inactive: 21.9%
6,CCOc1ccc(NC(=O)Cn2c(=O)c(CNc3ccc(OC)cc3)cc3ccc(OC)cc32)cc1,inactive: -14.6%
7,CCOC(=O)c1cc(S(=O)(=O)N2CCN(c3cc(Cl)ccc3C)CC2)[nH]n1,inactive: -16.6%
8,CCc1ccc(OCC(=O)Nc2c(C(=O)c3ccccc3)oc3ccccc23)cc1,inactive: 11.2%
9,Cc1nc(-c2cccc(S(=O)(=O)N3CCC(C(=O)NCc4ccccc4)CC3)c2)no1,inactive: -33.5%
10,Cc1cc(=O)n2nc(N3CCC(C(=O)NCc4ccccc4Cl)CC3)sc2n1,inactive: -13.1%
11,Cc1ccccc1NC(=O)CCc1c(C)nc2c(c1C)c(=O)n(C)c(=O)n2C,inactive: -9.7%
12,CCCN(C(=O)Cn1cnc2sc(C)c(S(=O)(=O)N3CCN(c4ncccn4)CC3)c2c1=O)c1cccc(C)c1,inactive: -15.2%
13,Cc1cccc(CN2C(=O)c3ccccc3S(=O)(=O)c3ccc(C(=O)N4CCCC4)cc32)c1,inactive: -19.4%
14,Cc1c(C(=O)NN2CCCCC2)nn(-c2ccc(Cl)cc2Cl)c1-c1ccc(Cl)cc1,inactive: -13.4%
15,CCN(CC)S(=O)(=O)c1ccc(NC(=O)[C@H](CCSC)N2Cc3ccccc3C2=O)cc1,inactive: -20.1%
16,Cc1ccc(S(=O)(=O)c2nnn3c2nc(N2CCCCC2)c2sccc23)cc1,inactive: 1.89%
17,CCn1ccc2cc(S(=O)(=O)N3CCCN(C(=O)Nc4ccc(C)cc4)CC3)ccc21,inactive: -26.7%
18,Cc1cc(C)cc(N(C)S(=O)(=O)c2nnc(NC(=O)COc3ccc(Cl)cc3)s2)c1,inactive: -1.82%
19,CC(=O)c1cccc(NC(=O)CN2C(=O)CN(C)C(=O)c3ccccc32)c1,inactive: 4.21%
20,Cc1cccc(Cn2c(-c3cccs3)nc3ccccc32)c1,inactive: -45.2%
21,CCOc1ccc(Cn2c(CNS(=O)(=O)c3cccs3)nc3cccnc32)cc1,inactive: -7.45%
22,Cc1ccc(N2CCN(c3cc(C)nc4c(-c5ccc(Cl)cc5)c(C)nn34)CC2C)cc1 (configuration not stated),inactive: -15.4%
23,NC(=O)Cn1c(=O)n(-c2ccc(F)c(Cl)c2)c(=O)c2sc3ccccc3c21,inactive: -27.7%
